This is one part of the list. These are further read-outs of the screen, such as a control signal, another cell line or another target. No call is given for them.
Target: Genome polyprotein (Dengue virus type 2 (strain 16681-PDK53)) (UniProt P29991)
Test: Dengue-2 NS5 methyltransferase inhibitors, primary screen, biochemical, confirmation dose response (AID 588689)
Settings: Dengue-2 NS5 methyltransferase capping enzyme assay, measured here: pilot screen replicate inhibition, at 25 µM, stronger effect = higher value

**Q.** Which inhibition does the source give for `Cc1cc(C)cc(OCCOc2cccc(C=C3C(=O)NC(=O)NC3=O)c2)c1` here?
**A.** 17.7%

**Q.** For `CCOC(=O)c1c(-n2c(C)cc(C=C3C(=O)NC(=O)NC3=O)c2C)sc2c1CCCC2`, which inhibition is on record?
**A.** 30.7%

**Q.** Which inhibition does the source give for `Cc1ccc(N2C(=O)NC(=O)/C(=C/c3ccc(OC(=O)c4cccs4)cc3)C2=O)cc1` here?
**A.** 33.4%

**Q.** With `Oc1ccc(/C=N/NP(=S)(c2ccccc2)c2ccccc2)c(O)c1O` as the molecule, how does the inhibition read?
**A.** 11.8%

From PubChem BioAssay AID588689 (Southern Research Specialized Biocontainment Screening …, 2011)
